Sequences and labels used below:
B1: OR4K15 (parent)
chain: GUUAACGGUCAUAGGCCAUGGAAACUAGGAGCACCAUUUCGCUGCCAGUGAAGAAAUGAACAAAGAAAAUCUGGGCCAGGCAGGCAUCAAAAGAAAUAGUCUUGCGCUCAACCAGAAAGUCUGUAAUCAUUUUAAGGGUA

Read counts are not given, so values of variants with three or more changes are uncertain.

The variants in this data set derive from B1. In words: self-cleavage, relative activity (ratio to wild type); higher = more cleavage; in vitro, sequencing; the parent is a self-cleaving ribozyme.
In the case of U70C U87C A117G, the self-cleavage amounted to 1.78.
In the case of A82G A94G U103C, the self-cleavage worked out at 1.57.
Then A86U A95G U130A, with 2.2; and A78U A86C A111U, with 0.01.
Then C71A A82U A90G A126U U127A, with 0.05; and A69G U87C A126G, with 1.03.
Take G80U A82G U100A: the self-cleavage is 0.04.
With C77U A82G A94G, the self-cleavage turned out to be 0.45.
Then A82G U87C A116G A129G U130C, with 0.04; and A86U U103C U131C, with 0.49.
For the variant U87C U102C U133A, the self-cleavage is 2.89.
Then A69G A82G A89U A116U, with 0.06.
The result for U70C A95G A114G reads 0.43.
For the variant A82C A110G U130C, the self-cleavage turned out to be 0.01.
Then U87C A125G U130C, with 0.02; and U72C A126G U127C, with 0.03.
The result for A78C A86G A94U reads 0.23.
The result for U72C A96G U122C A135G reads 0.07; that for G80U U102C U127C, 0.13.
With A86G A111G U122C, the self-cleavage is 0.
Turning to A69U C77U U103C, the self-cleavage came to 0.24.
As to U70C U87A A90G, the self-cleavage turned out to be 0.36.
In the case of A78G A116G U124A, the self-cleavage was found to be 0.04.
On to A68U G83A A126G, for which the self-cleavage was determined as 1.96.
Then A82G A90U A94G, with 0.71; and A86G A91U U97A, with 1.75.
The result for A82U A89G A111G reads 0.01.
Regarding A78G C105U A118G, the self-cleavage was determined as 0.03.
Take U72A U120G U132C: the self-cleavage is 0.09.
The result for A68G U87C A118G A134G reads 0.12; that for U70G U120C U131C, 0.15; that for U70C A95G U100C A129U, 0.43.
The result for A69G A92G A116G reads 0.77; that for A89G A95C C109U, 0.64; that for A68G G74A A94G U122C U130C, 0.04.
In the case of U70C G75A A110C, the self-cleavage stood at 0.03.
As to A68G A82G A129U, the self-cleavage was 0.12.
Take U70C A78G A118G: the self-cleavage came out at 0.15.
Then A68G U103C U122C, with 0.95; and A78G A114U U120C, with 0.02; and A82G A89G A110G U122A, with 0.06.
With A82G A98G U103C, the self-cleavage worked out at 1.39.
For A68G U87C U130A, the self-cleavage was 0.19.
The result for U72C A114C U127A reads 0.02.
Then A78G G80A U103C U127C, with 0.03.
C85U C109U A118G: the self-cleavage came to 0.28.
Regarding A82C U108G U124C, the self-cleavage amounted to 0.
The result for A89G A92G U100C A114U U132C reads 0.02; that for A78U U130G U133C, 0.17; that for G79A U87A A117G, 0.11.
U70C A94G C101A: the self-cleavage came to 0.12.
The result for A68U A86G A91G A111G reads 0.03.
Regarding U70C U102C C112U, the self-cleavage amounted to 0.02.
Then U70A A91G A110U A126G U127C U133C, with 0.15; and A78G A82G A117G, with 0.11; and A69G A78G A118G, with 0.12.
As for A82G C121A U132C, the self-cleavage stood at 0.66.
Take A69U U120C G136U: the self-cleavage was 1.39.
The result for A69G A92G A110U reads 0.61.
As for A69G G83A U124C, the self-cleavage was 1.02.
The result for A89G A92G A114G reads 0.2; that for A78G U122A U131C, 0.24.
As to A69G U103A U122C, the self-cleavage is 0.39.
The result for A69C A111U C112U U122C reads 0.01.
The result for U72C U102C A110G reads 0.04.
Then A86G A96G U108A, with 0.02; and A78U A92G A96G, with 0.24.
In the case of A68G A94G U108C, the self-cleavage came to 0.01.
As to A86U A98G U131C, the self-cleavage is 0.4.
As to A68G A96G U127A, the self-cleavage amounted to 1.15.
The result for A68G A118G U132C reads 0.47.
The result for U72C U87A A114C A117G reads 0.
Then A68G A91G G115A A126G, with 0.03; and A86G A90G A98G U102C C113A A118G, with 0; and U70C A95G U102A U108C, with 0.
As for A68G A114G A118U U127A, the self-cleavage was 0.09.
Regarding A68G A118C U122C, the self-cleavage came out at 0.67.
Turning to U87C A94G U127C, the self-cleavage was found to be 1.02.
Regarding U70C A91G U124C, the self-cleavage stood at 0.19.
Consider A68G A86U U103A, for which the self-cleavage was 0.84.
A69G A78U A111G A117G: the self-cleavage stood at 0.01.
The result for U70C G74C U127A reads 0.1; that for U87C A90G A96U, 0.73.
Turning to G84A A94U U108A A135G, the self-cleavage came to 0.
Consider A89C A92G U122A, for which the self-cleavage came to 1.72.
As for A68G A94G U132C, the self-cleavage turned out to be 1.02.
U87C A92G U127A: the self-cleavage was determined as 2.48.
For A78C A92G U120C U132A, the self-cleavage came to 0.05.
The result for U87A A116G A129U reads 0.19; that for A78G U108C A117G U131C, 0.01; that for U72A U103A A114U, 0.55.
The result for U70C U108C A114G reads 0.01.
Regarding U72A U103C A126G, the self-cleavage worked out at 0.05.
Consider A69U A114U A117G U122C U131C, for which the self-cleavage is 0.
The result for A68G C85U A95C reads 1.02; that for A78U A96G A111G, 0.02.
For A78G A92G A129G, the self-cleavage turned out to be 0.22.
The result for U72A A86U A118G reads 0.06; that for A82U U108C U133C, 0.01.
Turning to A78U A94G U108C A111G A118G, the self-cleavage was 0.01.
In the case of A86U U87C A91G A94G, the self-cleavage was 1.41.
The result for A69G U127A U133C reads 2.09; that for A68G U87C A117G, 1.62.
For the variant C71A U108C U131C, the self-cleavage stood at 0.
Then U70C C81A U127C, with 0.15.
Regarding U72A U132C U139G, the self-cleavage turned out to be 0.09.
Then G73U U122C U131C, with 0.09.
Then A86G A94G A111U, with 0.06.
Then A69G C88U A95G A111U A114G A118U, with 0.01; and U87C A92U U108C, with 0.01.
Take A78G A82C A117U: the self-cleavage came out at 0.08.
Then A68U U100A U122C, with 0.2; and A82U A117G U122G, with 0.51.
The result for U72A U100C U122G reads 0.46; that for U72A U100C U122C, 0.46.
For the variant A69G A90G A92G, the self-cleavage turned out to be 1.13.
Then G73A U100C G136A, with 0.38.
Then A69G A91G U100A, with 0.51; and A68G A92G A94U U130C, with 0.72.
As to A82U U102A A117G, the self-cleavage came out at 0.39.
With C76G A90G C109U, the self-cleavage was 0.08.
For A69G A95G A96G A111G U127C, the self-cleavage came to 0.01.
The result for C88U A94G U127A U130C reads 0.5; that for C81U A118U A135U, 0.14; that for A86G A94G A134G, 2.15.
Consider A89G A95G U132A, for which the self-cleavage turned out to be 2.18.
Then A68G A90G U102C, with 2.25.
The result for U72C A92G A116G reads 0.14.
Then U70C U102C A117C, with 0.51; and A86G U122A U127C, with 0.43; and A69G A95G U100A U127C, with 0.27.
Regarding A82U U127A U132C, the self-cleavage was found to be 0.27.
The result for A82G G104A A117G reads 0.01; that for G75C A94G A111G, 0.01; that for U72A A78U U100C, 0.04.
In the case of A78G A90G A95G, the self-cleavage amounted to 0.13.
Turning to A82G U100C C109A A134U, the self-cleavage amounted to 0.27.
For C81U U87G A117G, the self-cleavage was 0.09.
The result for U87C A110G A140G reads 0.1.
The result for A69G U103C A114G U120C reads 0.02; that for A82G A89G U139A, 0.55.
On to A68U A89U A98G, for which the self-cleavage was determined as 0.38.
The result for A69G U100C U103C U130C reads 1.39; that for A68G A90G U122C, 0.1.
As to U87C C112U U132C, the self-cleavage was determined as 0.
For A69G A89U A94G A135G, the self-cleavage was determined as 1.85.
The result for A82U U133C A140G reads 0.24; that for A69G U108C A118G, 0.01.
Turning to A82C U87C U122C, the self-cleavage is 0.12.
Consider G84A U100C U122G U130C, for which the self-cleavage is 0.41.
In the case of U72A A92G U131C, the self-cleavage was determined as 0.11.
Turning to G84A A95G U108C A126G, the self-cleavage amounted to 0.
For the variant A69G C71U U108C, the self-cleavage was determined as 0.01.
The result for A68G U72C A129G reads 0.08.
The result for U87C A90G U131C U132C reads 0.19; that for A68G G93A A118G, 1.2.
On to A69G A82G U108C A111U, for which the self-cleavage is 0.06.
Then A68G U103A A114U, with 0.01.
Turning to A68G U70C A98G, the self-cleavage worked out at 0.25.
As to U87C A110G C121U, the self-cleavage stood at 0.29.
In the case of C77U A92U A96U A116G A117U U133C, the self-cleavage worked out at 0.35.
Then A68G A98G A116G, with 0.19; and U87C A94G A111G, with 0.02; and A69U A78U A111U, with 0.04.
Consider A68U A82G U132C, for which the self-cleavage was determined as 0.87.
The result for A78U A95G U122A reads 0.33.
For the variant A82U A89G A114G, the self-cleavage amounted to 0.06.

The values are drawn from the RNAGym collection of RNA variant scans (doi:10.7554/elife.90254).
